According to US20160058880:

Assays:
[1] = test system: N-succinyl-beta-alanyl-L-leucyl-L-alanyl-L-leucyl-doxorubicin
[2] = test system: T1, NH2-Gly-Pro-Doxorubicin
T1 sequence: GP

[3] = test system: LGP-Dox
[4] = test system: PhAc-ALGP-doxorubicin

With FAP (sequence not shown) the “hydrolysis by purified FAP” value [1] was “Neither CD26 nor FAP hydrolized either PhAc-ALGP-Dox, Suc-βALAL-Dox or LGP-Dox”, the “conversion to Dox after 3 h incubation at 37° C. with purified FAP” value [2] was 62% conversion to Dox after 3 h incubation at 37 °C and the “hydrolysis by purified FAP” value [3] was “Neither CD26 nor FAP hydrolized either PhAc-ALGP-Dox, Suc-βALAL-Dox or LGP-Dox”. For the same substance, the “hydrolysis by purified FAP” value [4] was “Neither CD26 nor FAP hydrolized either PhAc-ALGP-Dox, Suc-βALAL-Dox or LGP-Dox”.
